{"source": "PubChem BioAssay AID652104", "about": "(National Center for Advancing Translational Sciences (NCATS), 2013)", "note": "In all, about 410,000 compounds went through this assay and about 7,200 (1.8%) were called active. The inconclusive results got no clear call from the source; some entries with a clear call stand among them for comparison. Calls come from the whole dose curve; as a rule, active = well fitted activation curve with a large enough effect; inconclusive = small, poorly fitted or top-dose-only effect, or another doubt; inactive = no such curve, though single readings can be large or run the other way. No potency is given beside an inconclusive call; the fits are too rough. Potency is the fitted concentration of half-maximal effect; tags give direction and shape of the fitted curve."}
{"experiment": "qHTS of TDP-43 Inhibitors; note: nearly all actives have a fitted effect of over 50% in size; for growth rescue (activation): % of control where 0% means no effect", "settings": "TDP-43 expressing yeast growth rescue, BacTiter-Glo, 24 h; growth rescue (activation): at 46.1 µM (top of the series)", "summary_of_the_method": "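Cell-based yeast growth screen: TDP-43 expression induced in galactose, inoculum OD600=0.02 after raffinose pregrowth to mid-log. Read-out BacTiter-Glo luminescence at 24 hr, 30 deg C; inhibition of toxicity seen as signal increase.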"}
{"smiles": "CCNC(=O)O/N=C(\\C)c1sc(-c2ccc(Cl)cc2)nc1C", "Potency": "inconclusive [activator, partial curve]"}
{"smiles": "Clc1ccc(Cn2ccnc2)cn1", "growth rescue (activation)": "inactive: 18.7% [at 9.22 µM]"}
{"smiles": "C[C@]12CCC(=O)C[C@H]1CC[C@@H]1[C@@H]2CC[C@]2(C)C(=O)CC[C@@H]12", "Potency": "inconclusive [activator, partial curve]"}
{"smiles": "CCOC(=O)[C@]12Cc3cc(C)ccc3[C@H]1N(C)C(=O)c1cc(OC)ccc12", "Potency": "inconclusive [activator, single point]"}
{"smiles": "CC(C)CN(CC(C)C)C(=O)C1C2c3ccccc3C(c3ccccc32)C1C(=O)O", "note": "(centres undefined)", "Potency": "active: 11.2 µM"}
{"smiles": "COc1ccc(OC)c(C(c2c(O)c3ccccc3oc2=O)c2c(C)n(C)n(-c3ccccc3)c2=O)c1", "note": "(centres undefined)", "Potency": "inconclusive [activator, single point]"}
{"smiles": "CCCCNC(=O)c1c(N)n(CCCOC)c2nc3ccccc3nc12", "Potency": "inconclusive [activator, single point]"}
{"smiles": "Cc1csc(N2CCc3ccccc32)n1", "Potency": "inconclusive [activator, partial curve]"}
{"smiles": "COC(=O)C1=C(c2ccc(F)cc2OCc2ccccc2)C[C@@H]2CC[C@H]1N2C(=O)NCc1cccc(OC)c1", "Potency": "inconclusive [activator, partial curve]"}
{"smiles": "CCc1cccc(NC(=O)CN2C(=O)CN=C(c3ccccc3F)c3cc(Cl)ccc32)c1", "Potency": "inconclusive [activator, single point]"}
{"smiles": "CN1[C@H]2CC[C@@H]1C(C(=O)N1CCOCC1)=C(O)C2", "Potency": "inconclusive [activator, partial curve]"}
{"smiles": "Nc1ccc(Cc2ccc(N)c(Cl)c2)cc1Cl", "Potency": "active: 12.6 µM"}
{"smiles": "ClC1=C(Cl)C2(Cl)C3C(Cl)C=CC3C1(Cl)C2(Cl)Cl", "note": "(centres undefined)", "growth rescue (activation)": "inactive: 6.3%"}
{"smiles": "O=C(Nc1ccc2nc(SCC(=O)N3CCCc4ccccc43)sc2c1)c1ccccc1F", "Potency": "inconclusive [activator, single point]"}
{"smiles": "O=C(C1CCN(S(=O)(=O)c2ccc(Br)s2)CC1)N1CCN(c2ccc(F)cc2)CC1", "Potency": "inconclusive [activator, partial curve]"}
{"smiles": "NCC(O)c1cc(O)c(O)cc1F", "note": "(centres undefined)", "Potency": "inconclusive [activator, full curve]"}
{"smiles": "Cc1ccc([C@H]2C[C@@H](O)[C@H](n3cc(COC(=O)c4ccccc4)nn3)CN2C(=O)C2CCCCC2)cc1", "Potency": "inconclusive [activator, single point]"}
{"smiles": "Nc1ncc2[nH]cnc2n1", "Potency": "inconclusive [activator, partial curve, poor fit]"}
{"smiles": "CCNc1nc(NC(C)(C)C)nc(SC)n1", "Potency": "inconclusive [activator, full curve, poor fit]"}
{"smiles": "CC(C)(C)OC(=O)c1c(N)n(Cc2ccco2)c2nc3ccccc3nc12", "growth rescue (activation)": "inactive: 9.61%"}
{"smiles": "Nc1cc(N2CCNCC2)c([N+](=O)[O-])cc1Cl", "growth rescue (activation)": "inactive: 21.2%"}
{"smiles": "CCC(C)n1c(O)c(C(c2ccccn2)c2c(O)n(C(C)CC)c(=S)[nH]c2=O)c(=O)[nH]c1=S", "note": "(centres undefined)", "Potency": "inconclusive [activator, single point]"}
{"smiles": "O=C1NC(=O)C(=Cc2ccc(-c3ccc(Cl)cc3)o2)C(=O)N1", "Potency": "inconclusive [activator, single point]"}
{"smiles": "CC(=NNC(=S)N1CC2CCC(CC2)C1)c1nccs1", "Potency": "inconclusive [activator, full curve]"}
{"smiles": "O=C1C=CC(=O)C2C1C1(Cl)C(Cl)=C(Cl)C2(Cl)C1(Cl)Cl", "note": "(centres undefined)", "growth rescue (activation)": "inconclusive: -91.7% [activator]"}
{"smiles": "COc1ccc(N2CCN(C(CNC(=O)Oc3ccccc3)c3cccnc3)CC2)cc1", "note": "(centres undefined)", "growth rescue (activation)": "inactive: 2.37%"}
{"smiles": "Fc1cccc(-c2ccc3c(c2)CN(C(=S)NCCc2ccccc2)Cc2cnnn2-3)c1", "Potency": "inconclusive [activator, partial curve]"}
{"smiles": "COc1ccc(CCNC(=O)c2cnc3sc(N4CCCCCC4)nn3c2=O)cc1", "Potency": "inconclusive [activator, full curve, poor fit]"}
{"smiles": "COc1ccc2c(c1OC)CN(C)CCc1cc3c(cc1C(=O)C2)OCO3", "Potency": "inconclusive [activator, partial curve, poor fit]"}
{"smiles": "c1ccc2c(c1)CNCc1cnnn1-2", "Potency": "inconclusive [activator, partial curve]"}
{"smiles": "C[C@]12C=CC(=O)C=C1C=C[C@@H]1C2CC[C@]2(C)C(=O)CCC12", "note": "(some centres undefined)", "Potency": "inconclusive [activator, partial curve]"}
{"smiles": "CN1C(=O)CN=C(c2ccccc2Cl)c2cc(Br)ccc21", "Potency": "inconclusive [activator, single point]"}
{"smiles": "CO[C@H]1CC=C2CCN3CCC4=C(CC(=O)OC4)[C@]23C1", "Potency": "inconclusive [activator, full curve, poor fit]"}
{"smiles": "NS(=O)(=O)c1ccc(N=Cc2c(O)n(C3CCCCC3)c(=O)n(C3CCCCC3)c2=O)cc1", "Potency": "inconclusive [activator, single point]"}
{"smiles": "OC[C@H]1O[C@@H](n2cnc3cc(Cl)c(Cl)cc32)[C@H](O)[C@@H]1O", "growth rescue (activation)": "inactive: 9.85%"}
{"smiles": "O=c1c2cc(Cl)cc(Cl)c2nc(CN2CCOCC2)n1-c1ccccc1F", "Potency": "inconclusive [activator, single point]"}
{"smiles": "CCOC(=O)[C@]12Cc3c(cc(OC)c(OC)c3OC)[C@H]1N(CCC(=O)OC)C(=O)c1ccccc12", "Potency": "inconclusive [activator, single point]"}
{"smiles": "COc1ccc(NC(=O)CN(C)C(=O)CSC(c2ccccc2)c2ccccc2)cc1", "Potency": "inconclusive [activator, partial curve, poor fit]"}
{"smiles": "O=C(c1ccco1)N1CCN(C(=O)c2ccc(COc3ccc(Cl)cc3Cl)o2)CC1", "Potency": "inconclusive [activator, single point]"}
{"smiles": "COC(=O)CCCCC1SCC(NC(=O)c2ccccc2)C1Cl", "note": "(centres undefined)", "Potency": "inconclusive [activator, single point]"}
{"smiles": "C=CCn1c(O)c(C(CC)=NCCc2ccccc2)c(=O)[nH]c1=O", "Potency": "inconclusive [activator, single point]"}
{"smiles": "COC(=O)C1=C(c2ccccc2OCc2ccccc2)C[C@@H]2CC[C@H]1N2C(=O)NCCCOC(C)C", "Potency": "inconclusive [activator, partial curve]"}
{"smiles": "O=C(COc1ccc2ccccc2c1)N1CCN(CC2CC3C=CC2C3)CC1", "note": "(centres undefined)", "growth rescue (activation)": "inactive: -10.8%"}
{"smiles": "O=C1c2ccccc2C(=O)N1Cc1nc2ccccc2c(=O)n1-c1ccc(Br)cn1", "Potency": "inconclusive [activator, partial curve]"}
{"smiles": "O=Cc1cn(Cc2ccc(F)cc2Cl)c2ccccc12", "Potency": "inconclusive [activator, single point]"}
{"smiles": "Cc1c(C)c2c(OCC(=O)N[C@@H](C)C(=O)O)cc3c(c2oc1=O)CCC(C)(C)O3", "Potency": "inconclusive [activator, partial curve]"}
{"smiles": "O=C1c2ccccc2C(=O)N1SC1CCCCC1", "growth rescue (activation)": "inactive: -47.4%"}
{"smiles": "C[N+]1(C)CCOC(O)(c2ccc(-c3ccc(C4(O)C[N+](C)(C)CCO4)cc3)cc2)C1", "note": "(centres undefined)", "Potency": "active: 5.01 µM"}
{"smiles": "O=C(NC1CCCCC1)N1Cc2cc(-c3ccccc3)ccc2-n2nncc2C1", "Potency": "active: 20 µM"}
{"smiles": "CC1CC(C)CN(S(=O)(=O)c2ccc3c(c2)oc(=O)n3CC(=O)N(C)Cc2ccccc2)C1", "note": "(centres undefined)", "Potency": "inconclusive [activator, partial curve]"}
{"smiles": "O=c1c2ccccc2nc(/C=C/c2ccc(F)cc2)n1-c1ccccc1O", "Potency": "inconclusive [activator, partial curve]"}
{"smiles": "Cc1ccc(Cn2nnnc2CN2CCC(n3nnc4cc(C)ccc43)CC2)cc1", "Potency": "active: 20 µM"}
{"smiles": "O=C(Nc1cccc(Cl)c1)OCC#CCN1CCCC1", "Potency": "inconclusive [activator, partial curve, poor fit]"}
{"smiles": "O=[N+]([O-])c1oc2ccc3ccccc3c2c1CCO", "growth rescue (activation)": "inconclusive: -83.1% [activator]"}
{"smiles": "COc1ccc(OC(=O)N(C)C[C@H]2OCc3cnnn3CCCC(=O)N([C@H](C)CO)C[C@@H]2C)cc1", "Potency": "inconclusive [activator, partial curve]"}
{"smiles": "COC(=O)C1=C(c2ccc3ccccc3c2)C[C@@H]2CC[C@H]1N2C(=O)N1CCOCC1", "Potency": "inconclusive [activator, single point]"}
{"smiles": "CCOC(=O)C1(c2ccccc2)CCN(CCc2ccc(NC(=O)CCC(=O)O)cc2)CC1", "growth rescue (activation)": "inactive: -10.1%"}
{"smiles": "Cc1c(C(=O)O)cc(-c2ccccc2)n1Cc1ccccc1", "Potency": "inconclusive [activator, full curve]"}
{"smiles": "O=S(=O)(c1cccc2ccccc12)N1Cc2ccccc2-n2nncc2C1", "Potency": "active: 20 µM"}
{"smiles": "Cc1c(O)c2ccccc2n(-c2ccccc2)c1=O", "Potency": "inconclusive [activator, partial curve]"}
{"smiles": "CCCCCN1C(=O)c2ccccc2[C@@]2(C(=O)OCC)Cc3cc(Cl)ccc3[C@@H]12", "Potency": "inconclusive [activator, single point]"}
{"smiles": "Cn1c(O)c(C(=N)COc2cccc(Cl)c2)c(=O)n(C)c1=O", "Potency": "inconclusive [activator, full curve, poor fit]"}
{"smiles": "CCC(C)n1c(O)c(C=NCCc2ccccc2)c(=O)[nH]c1=S", "note": "(centres undefined)", "Potency": "inconclusive [activator, single point]"}
{"smiles": "Cn1c(O)c(C(c2ccccn2)c2c(O)n(C)c(=S)[nH]c2=O)c(=O)[nH]c1=S", "Potency": "inconclusive [activator, partial curve]"}
